According to PubChem BioAssay AID652104 (National Center for Advancing Translational Sciences (NCATS), 2013):
About 7,200 (1.8%) of roughly 410,000 compounds were called active. The inconclusive results got no clear call from the source; some entries with a clear call stand among them for comparison. Calls follow the shape of the dose curve; as a rule, active = well fitted activation curve with a large enough effect; inconclusive = small, poorly fitted or top-dose-only effect, or another doubt; inactive = no such curve, though single readings can be large or run the other way. Potencies of inconclusive entries are left out as doubtful fits.

Test: qHTS of TDP-43 Inhibitors; also: nearly all actives have a fitted effect of over 50% in size; as to growth rescue (activation): % of control where 0% means no effect
Conditions: TDP-43 expressing yeast growth rescue, BacTiter-Glo, 24 h; growth rescue (activation): at 46.1 µM (top of the series) unless noted
Text: The goal of this project is to identify new chemical probes capable of reversing the toxicity associated with TDP-43 which is associated with frontotemporal lobar degeneration and amyotrophic lateral sclerosis. These compounds will provide a complementary approach to deciphering the tangled mechanisms of toxicity and protection that we have uncovered through genome-wide genetic screens and are beginning to uncover in a large-scale proteomics analysis with mass spectroscopy.
To this end, a miniaturized assay was developed to be screened against the Molecular Libraries Small Molecule Repository (MLSMR) to discover TDP-43 inhibitors. Please note that in the set-up this yeast-based assay compounds that inhibit as TDP-43, have a read-out as activators.
NIH Chemical Genomics Center [NCGC]
NIH Molecular Libraries Probe Centers Network [MLPCN]
Assay Submitter (PI): Susan Lindquist, Whitehead Institute/MIT
Dispense 2.5 microL yeast galactose medium per 1536-well plate, pin compound, dispense 2.5 microL TDP-43 expressing yeast in galactose medium at OD600=0.02 (pregrown in raffinose medium to mid-log phase) per well, incubate for 24 hr at 30 deg C, and cell growth will be measured using 5 microL of Bactiter/Glo reagent to entire plate and read using Luminescence Protocol in ViewLux.
Potency is read from the fitted curve at half-maximal effect; tags tell the direction and shape of the fitted curve.

Compound	Potency	growth rescue (activation)
CN(CC(=O)O/N=C(\N)c1ccc(Br)cc1)S(=O)(=O)c1ccccc1	inconclusive [activator, partial curve]	–
Cc1cc(C)cc(NC(=O)c2cc(S(=O)(=O)N3CCCCC3)c[nH]2)c1	–	inactive: 0%
N#Cc1nc(Cc2cccc3ccccc23)oc1NCc1ccc2c(c1)OCO2	inconclusive [activator, partial curve]	–
COc1ccc(CCNC(=O)c2ccc(-c3ccc([N+](=O)[O-])cc3Cl)o2)cc1	inconclusive [activator, partial curve]	–
COc1ccccc1C1=CC(=O)C[C@H](c2ccc(Cl)cc2)C1	inconclusive [activator, single point]	–
CCN(CC)c1ncnc2c1cnn2Cc1ccc(Cl)cc1	inconclusive [activator, partial curve]	–
CCOc1ccc(NC(=O)c2cc(S(=O)(=O)N3CCC(C)CC3)cn2C)cc1	–	inactive: 3.27%
COC[C@H](NS(=O)(=O)c1ccc(Br)cc1F)[C@@H](O)c1ccccc1	inconclusive [activator, partial curve]	–
Cc1cccc(NC(=S)N/N=C/c2cccn2Cc2ccc(F)cc2)c1	inconclusive [activator, single point]	–
Cn1c(NCCc2ccncc2)nc2cc(-c3cccc(C(F)(F)F)c3)sc2c1=O	inconclusive [activator, partial curve, poor fit]	–
CCCOC(=O)c1cccc(Nc2nc(C(=O)OCC)nc3ccccc23)c1	active: 22.4 µM	–
COc1ccc(/C=C/C(=O)N(C)C2CCCCC2)cc1Br	inconclusive [activator, single point]	–
O=C(O)c1c2c(nc3ccc(S(=O)(=O)N4CCC(C(=O)NC5CCCCCC5)CC4)cc13)CCCC2	–	inactive: 20.8%
Cc1ccc(C(=O)c2cc([N+](=O)[O-])ccc2N2CCOCC2)c(C)c1	inconclusive [activator, single point]	–
CCOc1ccc(N(C)S(=O)(=O)c2cc(-c3cnc(C)o3)ccc2OC)cc1	inconclusive [activator, partial curve]	–
CCCCC1OC23CCCCC2C(C#N)(C#N)C1(C#N)C(=N)O3 (stereo unspecified)	–	inactive: 0.0596%
COC(=O)c1cc2oc3ccccc3c2n1Cc1ccccn1	active: 12.6 µM	–
COc1ccccc1CN1CC(C(=O)NCCCc2ccc(F)cc2)CCC1=O (stereo unspecified)	–	inactive: -3.96%
COc1ccc(-c2coc3c(C(=O)Nc4cccc(C(C)=O)c4)cccc23)c(C)c1	–	inactive: 6.6%
CO/N=C/c1ccc(Sc2ccccc2N)c([N+](=O)[O-])c1	active: 20 µM	–
CCCOc1ccc(F)cc1-c1cc(C(=O)NC2CCCCC2)[nH]n1	inconclusive [activator, partial curve]	–
CCN(C(=O)Cn1cnc2c1c(=O)n(C)c(=O)n2C)c1ccccc1C	–	inactive: 21.3%
Cc1ccc(NC(=O)c2cnc(SCC(=O)N3CCCc4ccccc43)n(C)c2=O)cc1C	–	inactive: 25.3%
Cc1ccc(Cl)c(OC(=O)c2ccc(N3CCOCC3)c([N+](=O)[O-])c2)c1	inconclusive [activator, partial curve]	–

Compound	Potency	growth rescue (activation)
Cc1ccc(C)c(OCCC(=O)OCC(=O)NNC(=O)c2ccccc2)c1	–	inactive: 11.9%
COCCNc1nc(-c2ccc(OC)cc2C)c2sc(-c3ccccc3)cc2n1	inconclusive [activator, partial curve, poor fit]	–
Clc1cccc(CNc2ccn3nc(-c4cccs4)cc3n2)c1	active: 17.8 µM	–
CC(=O)N1CCc2cc(NC(=O)C3(C)CCN3Cc3ccc(C(C)C)cc3)ccc21 (stereo unspecified)	inconclusive [activator, partial curve]	–
COc1ccc(-c2cc(C(F)(F)F)n3nc(C(=O)Nc4ccc(Cl)cc4C(F)(F)F)cc3n2)cc1OC	inconclusive [activator, partial curve]	–
CCOc1ccc(NS(=O)(=O)c2ccc3[nH]c(=O)[nH]c3c2)cc1	–	inactive: -13.5%
O=C1NC(=Nc2ccccc2)/C(=C/c2ccco2)S1	inconclusive [activator, partial curve]	–
Cc1ccccc1OCc1nc(-c2cccnc2)no1	active: 11.2 µM	–
CC1=C(C(=O)Nc2ccc(C)cc2C)C(c2cc(Br)ccc2F)n2ncc(C(=O)Nc3ccc(C)cc3)c2N1 (stereo unspecified)	inconclusive [activator, partial curve]	–
COC(=O)Cn1c(SCCOc2ccccc2Cl)nc2ccccc21	active: 28.2 µM	–
COC(=O)c1cc2c(ccc3ccccc32)oc1=O	inconclusive [activator, single point]	–
O=C1CCCC(=O)N1c1ccc(Oc2ccc(Cl)cc2)cc1	inconclusive [activator, partial curve]	–
Cc1ccc2nc(Cl)c3cc(C(=O)N4CCCC(C)C4)sc3c2c1 (stereo unspecified)	inconclusive [activator, partial curve]	–
CCOC(=O)C(C)N1CC(=O)N(c2ccccc2)C1=O (stereo unspecified)	inconclusive [activator, single point]	–
CCn1c(=O)c2cc(C(=O)NCCc3ccc(OC)c(OC)c3)sc2c2ccccc21	–	inactive: -0.877%
CCOc1ccc(CNC(=O)c2ccc(Sc3ccc(C)cc3)c(N)c2)cc1OC	–	inactive: 5.9%
COc1cccc(CNn2c(-c3cccc(C)c3)nc3ccccc3c2=O)c1	inconclusive [activator, single point]	–
C/C(N)=C(/C#N)C(=O)COC(=O)c1cccc2ccccc12	inconclusive [activator, single point]	–
O=C(Nc1cccc(F)c1)c1ccc2ncsc2c1	inconclusive [activator, single point]	–
Cn1c(Cc2cccc3ccccc23)nnc1SCC(=O)N1CCN(c2cccc(Cl)c2)CC1	inconclusive [activator, single point]	–
Cc1cccc(N(C)C(=O)CS(=O)(=O)c2cccc3nsnc23)c1	inconclusive [activator, full curve]	–
COc1cccc(CNC(=O)c2ccc3c(Cl)c4c(nc3c2)CCCC4)c1	active: 15.8 µM	–
COc1ccc(C2N(c3ccccc3)C(=O)C2(F)F)cc1OC (stereo unspecified)	inconclusive [activator, partial curve]	–
CCOC(=O)c1c(-c2ccc(OC)cc2)csc1/N=C/C1C(=O)CCCC1=O	inconclusive [activator, partial curve]	–

Compound	Potency	growth rescue (activation)
Cc1ccc2c(CC(=O)O)coc2c1	inconclusive [activator, partial curve]	–
CCOc1ccc(CCNC(=O)c2ccc(C)c(-n3cnc4cccnc43)c2)cc1	–	inactive: 9.18%
Cc1nc2scc(-c3cccs3)c2c(=O)n1N	inconclusive [activator, partial curve]	–
Cc1cc(C(=O)C(=O)O)c(C)n1-c1ccc(Cl)cc1	–	inactive: -21.9%
O=CNc1cc(-c2ccoc2)cn2c(-c3ccc(F)cc3)cnc12	inconclusive [activator, partial curve]	–
c1ccc2oc(-c3csc(NCC4CCCO4)n3)cc2c1 (stereo unspecified)	active: 11.2 µM	–
Cc1ccc(SCC(=O)Nc2ccc3oc(-c4ccc(F)cc4)nc3c2)cc1	–	inactive: 24.1%
O=C(NCc1ccc(F)cc1)c1cc(C2CCCCN2C(=O)C2CCCCC2)on1 (stereo unspecified)	inconclusive [activator, full curve, poor fit]	–
CC1(C)CC(=O)C=C(c2ccc(-c3ccccc3)cc2)C1=O	inconclusive [activator, partial curve, poor fit]	–
O=C(COC(=O)c1ccc([N+](=O)[O-])s1)Nc1ccc(Cl)cn1	inconclusive [activator, full curve]	–
O=[N+]([O-])c1ccc(Nc2ccccc2F)nc1	active: 17.8 µM	–
CCOc1ccc2nc(N3CCN(C(=O)C(C)C)CC3)sc2c1	inconclusive [activator, partial curve]	–
CC1(C(=O)NS(=O)(=O)Cc2ccccc2)CCN1C(=O)C1(c2ccc(Cl)cc2)CC1 (stereo unspecified)	inconclusive [activator, single point]	–
COc1ccc2oc(=O)cc(CN3CCN(C(=O)c4ccccc4Br)CC3)c2c1	–	inactive: 4.27%
C=CCn1c(C)cc(C(=O)CSc2nc3ccccc3c(=O)[nH]2)c1C	active: 10 µM	–
Cc1cc(NC(=O)Nc2ccccc2Cl)no1	inconclusive [activator, single point]	–
CCN(CC)C(=O)COC(=O)c1cc(-c2ccc(OC)cc2)nc2ccccc12	inconclusive [activator, single point]	–
COc1ccc(C(=O)CSc2nnc(-c3ccco3)c(-c3ccco3)n2)cc1	inconclusive [activator, single point]	–
O=C(NC1CCN(C(=O)Nc2ccccc2Cl)CC1)c1ccccc1	inconclusive [activator, full curve, poor fit]	–
Cc1ccc2c(c1)N(Cc1ccccc1)C(=O)C(C)O2 (stereo unspecified)	inconclusive [activator, single point]	–
CN(C)c1ccc(CNc2ncnc3sccc23)cc1	inconclusive [activator, single point]	–
CC(C)c1ccc(NC(=O)c2cc(S(=O)(=O)NC3CCCCC3)ccc2F)cc1	inconclusive [activator, partial curve]	–
Cc1ccccc1/C=C1\Sc2ccc(C(=O)N3CCN(c4ccccn4)CC3)cc2N(C)C1=O	inconclusive [activator, partial curve]	–
